{"source": "ChEMBL document CHEMBL4888484", "about": "“Replenishing the malaria drug discovery pipeline: Screening and hit evaluation of the MMV Hit Generation Library 1 (HGL1) against asexual blood stage Plasmodium falciparum ,using a nano luciferase reporter read-out” (2022)", "note": "About 540 (0.36%) of roughly 150,000 compounds showed an effect of 50% or more. Some of the results follow."}
{"system": "Plasmodium falciparum", "assay": "Primary screen in NF54 nanoGlo assay, in single point, at 2uM, 72h; a lower Z score goes with more inhibition", "assay_type": "functional, Erythrocyte", "conditions": "timepoint 72 hour", "units": {"% Inhibition": "%"}}
{"smiles": "C[C@@H](CNC(=O)N1CC(S(C)(=O)=O)C1)COCc1ccccc1", "% Inhibition": -1, "Z score": 0.11}
{"smiles": "Cc1nnc(COc2ccc(NC(=O)Cc3c(C)noc3C)cc2)o1", "% Inhibition": -8, "Z score": 1.48}
{"smiles": "CCC[C@H]1CCCN(C(=O)c2c(C)nsc2NC)CC1", "% Inhibition": 7, "Z score": -0.62}
{"smiles": "COC(=O)c1cnc(N2CCOCC2)nc1-c1cnc(N2CCCCC2)nc1C", "% Inhibition": -3, "Z score": 0.4}
{"smiles": "Cc1nc(C)c(C(=O)NC2(Cc3cccc(F)c3)CCC2)o1", "% Inhibition": -18, "Z score": 2.29}
{"smiles": "CCN1CCN(C(=O)c2cc3cc(NC(=O)c4ccccc4Cl)ccc3n2Cc2cccc(F)c2)CC1", "% Inhibition": 2, "Z score": -0.26}
{"smiles": "CCOc1nc2ccccc2nc1N1CCC[C@H](C(=O)Nc2ccc(F)cc2C)C1", "% Inhibition": -9, "Z score": 0.89}
{"smiles": "O=C(c1ccc(F)cc1)N1CCOc2ccc(CN3CCCC3)cc2C1", "% Inhibition": 3, "Z score": -0.52}
{"smiles": "COc1ccc(C)cc1NC(=O)C[C@H]1COc2ccccc2O1", "% Inhibition": 9, "Z score": -1.44}
{"smiles": "C=C(C)CN[C@@](C)(C(N)=O)c1cccc(Cl)c1", "% Inhibition": -13, "Z score": 1.75}
{"smiles": "O=C(c1cccc(OC(F)F)c1)N1CCOC[C@](O)(CN2CCCC2)C1", "% Inhibition": -7, "Z score": 1.46}
{"smiles": "Cc1cc(N2CC[C@H](N3CCN(C)CC3)[C@H](CCC(=O)O)C2)nc2ccccc12", "% Inhibition": 1, "Z score": -0.13}
{"smiles": "CC[C@H](NC(=O)c1ccn(C(F)F)n1)c1cccc(C)n1", "% Inhibition": -1, "Z score": 0.15}
{"smiles": "CCc1cc(C(=O)NCc2c(C)cc(C)[nH]c2=O)[nH]n1", "% Inhibition": -10, "Z score": 1.85}
{"smiles": "CCc1ccc(OCC(=O)Nc2cc(C(C)C)ccc2O)c(-n2cnnc2)c1", "% Inhibition": 1, "Z score": -0.1}
{"smiles": "Cc1oc(-c2cccc(F)c2F)nc1CN(C)C[C@H]1CCCNC1", "% Inhibition": 1, "Z score": -0.26}
{"smiles": "CNC(N)=NCCc1ccc(OC(F)F)cc1", "% Inhibition": -10, "Z score": 1.81}
{"smiles": "Cc1ccn(-c2ccc(C(=O)NCCc3ccc(Cl)cc3)cn2)n1", "% Inhibition": -9, "Z score": 1.08}
{"smiles": "COc1ccc(C(=O)c2sc(Nc3ccc4c(c3)OCCO4)nc2N)cc1", "% Inhibition": -15, "Z score": 2.27}
{"smiles": "Cc1cc(NCc2ccc(C(=O)O)cc2)nc(C2CC2)n1", "% Inhibition": -13, "Z score": 1.55}
{"smiles": "CC(C)OCCC(=O)N[C@@H](C)c1csc(C(C)C)n1", "% Inhibition": -7, "Z score": 0.73}
{"smiles": "COCC(=O)Nc1cc(C(=O)N(C)CCc2cn[nH]c2)c2c(c1)ncn2Cc1ccc(F)cc1", "% Inhibition": -7, "Z score": 1}
{"smiles": "CCN(Cc1cncnc1)Cc1ccc2[nH]ccc2c1", "% Inhibition": -10, "Z score": 1.26}
